Experimental findings from the supplement of paper PMC7125110 are described below.

First the molecules themselves.
B1: glmS ribozyme (parent)
chain: AUAAAAGCGCCAGAACUACAGAAAUGUAGUUGACGAGGAGGAGGUUUAUCGAAUUUUCGGCGGAUGCCUCCAAA

Variants at the floor of the assay are shown more often than the library holds them. Some results are limits rather than exact numbers.

What all share (conditions): with glucosamine-6-phosphate
Variants of B1 are the subject of data set [1]. In words: kcat; higher = faster cleavage; RNA array. Put shortly:
(§1)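 Barcoded glmS ribozyme variants on sequenced MiSeq chips were transcribed in situ by E. coli RNA polymerase and tracked through a hybridised Cy3 probe at 37 °C. Glucosamine-6-phosphate (40 μM to 10 mM) in HEPES/KCl/Mg(OAc)2 buffer was flowed in, and tiles were imaged over ~14 h. Signals were normalised to baseline and to non-cleaving reference variants; per-tile medians were fit to one- or two-exponential decays to give kobs. kcat and KM came from weighted Michaelis–Menten fits across concentrations.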

Variants of B1 are the subject of data set [2]. In words: self-cleavage kobs at 40 uM GlcN6P; higher = faster cleavage; RNA array. The gist of the method: as §1
In data set [3] the parent is B1. In words: self-cleavage kobs at 10000 uM GlcN6P; higher = faster cleavage; RNA array. The gist of the method: as §1
Variants of B1 are the subject of data set [4]. In words: self-cleavage kobs at 640 uM GlcN6P; higher = faster cleavage; RNA array. The gist of the method: as §1
In data set [5] the parent is B1. In words: self-cleavage kobs at 2500 uM GlcN6P; higher = faster cleavage; RNA array. Put shortly:
as §1

Variants of B1 are the subject of data set [6]. In words: self-cleavage kobs at 160 uM GlcN6P; higher = faster cleavage; RNA array. The gist of the method:
as §1

The term kcat denotes the maximal rate divided by the concentration of active sites. As for U46A A64U, the kcat with glucosamine-6-phosphate [1] was less than 1e-05 s⁻¹. Further, the “self-cleavage kobs at 40 uM GlcN6P” value with glucosamine-6-phosphate [2] is less than 1e-05 s⁻¹. Also, the “self-cleavage kobs at 10000 uM GlcN6P” value in the data set with glucosamine-6-phosphate [3] was less than 1e-05 s⁻¹.
Turning to A6G A12G A36U G43C, the “self-cleavage kobs at 40 uM GlcN6P” value with glucosamine-6-phosphate [2] is less than 1e-05 s⁻¹. Also, the “self-cleavage kobs at 640 uM GlcN6P” value in the data set with glucosamine-6-phosphate [4] is less than 1e-05 s⁻¹. For the same variant, the “self-cleavage kobs at 2500 uM GlcN6P” value with glucosamine-6-phosphate [5] is less than 1e-05 s⁻¹. In addition, the “self-cleavage kobs at 10000 uM GlcN6P” value with glucosamine-6-phosphate [3] was less than 1e-05 s⁻¹.
A6G G13A C16G G32C C61U C71G: the “self-cleavage kobs at 40 uM GlcN6P” value with glucosamine-6-phosphate [2] was less than 1e-05 s⁻¹. In addition, the “self-cleavage kobs at 2500 uM GlcN6P” value in the data set with glucosamine-6-phosphate [5] is less than 1e-05 s⁻¹.
Regarding A6G A12C U45G C58U G59C G62A C68G, the “self-cleavage kobs at 40 uM GlcN6P” value with glucosamine-6-phosphate [2] is less than 1e-05 s⁻¹. In addition, the “self-cleavage kobs at 10000 uM GlcN6P” value in the data set with glucosamine-6-phosphate [3] is less than 1e-05 s⁻¹.
With G62A G63U, the kcat with glucosamine-6-phosphate [1] is less than 1e-05 s⁻¹. Besides, in the data set with glucosamine-6-phosphate [2], the “self-cleavage kobs at 40 uM GlcN6P” value is less than 1e-05 s⁻¹. The “self-cleavage kobs at 640 uM GlcN6P” value with glucosamine-6-phosphate [4] was less than 1e-05 s⁻¹. Besides, the “self-cleavage kobs at 10000 uM GlcN6P” value with glucosamine-6-phosphate [3] is less than 1e-05 s⁻¹.
Regarding G38A A48G, the kcat with glucosamine-6-phosphate [1] was less than 1e-05 s⁻¹. Further, the “self-cleavage kobs at 40 uM GlcN6P” value with glucosamine-6-phosphate [2] was less than 1e-05 s⁻¹.
As to G40C C58U, the kcat with glucosamine-6-phosphate [1] is less than 1e-05 s⁻¹. Also, the “self-cleavage kobs at 40 uM GlcN6P” value in the data set with glucosamine-6-phosphate [2] was less than 1e-05 s⁻¹. In the data set with glucosamine-6-phosphate [6], the “self-cleavage kobs at 160 uM GlcN6P” value is less than 1e-05 s⁻¹.
With A6G U46C, the “self-cleavage kobs at 40 uM GlcN6P” value in the data set with glucosamine-6-phosphate [2] is less than 1e-05 s⁻¹. The “self-cleavage kobs at 640 uM GlcN6P” value with glucosamine-6-phosphate [4] was less than 1e-05 s⁻¹. In addition, the “self-cleavage kobs at 160 uM GlcN6P” value with glucosamine-6-phosphate [6] was less than 1e-05 s⁻¹.
As for A6G A15C C70A, the “self-cleavage kobs at 40 uM GlcN6P” value with glucosamine-6-phosphate [2] is less than 1e-05 s⁻¹.
For G7A U30C, in the data set with glucosamine-6-phosphate [2], the “self-cleavage kobs at 40 uM GlcN6P” value was less than 1e-05 s⁻¹. Further, the “self-cleavage kobs at 640 uM GlcN6P” value in the data set with glucosamine-6-phosphate [4] was less than 1e-05 s⁻¹. Also, the “self-cleavage kobs at 2500 uM GlcN6P” value with glucosamine-6-phosphate [5] was less than 1e-05 s⁻¹. Moreover, in the data set with glucosamine-6-phosphate [3], the “self-cleavage kobs at 10000 uM GlcN6P” value was less than 1e-05 s⁻¹.
G7A A52U G63C: in the data set with glucosamine-6-phosphate [2], the “self-cleavage kobs at 40 uM GlcN6P” value is less than 1e-05 s⁻¹. For the same variant, the “self-cleavage kobs at 640 uM GlcN6P” value with glucosamine-6-phosphate [4] was less than 1e-05 s⁻¹. Moreover, the “self-cleavage kobs at 160 uM GlcN6P” value with glucosamine-6-phosphate [6] is less than 1e-05 s⁻¹. The “self-cleavage kobs at 2500 uM GlcN6P” value with glucosamine-6-phosphate [5] is less than 1e-05 s⁻¹.
A6G G13U U69C: in the data set with glucosamine-6-phosphate [2], the “self-cleavage kobs at 40 uM GlcN6P” value was less than 1e-05 s⁻¹.
Regarding G7A U45C C71U, the “self-cleavage kobs at 40 uM GlcN6P” value with glucosamine-6-phosphate [2] was less than 1e-05 s⁻¹. Besides, the “self-cleavage kobs at 640 uM GlcN6P” value in the data set with glucosamine-6-phosphate [4] is less than 1e-05 s⁻¹.
For G38A G63U, the kcat with glucosamine-6-phosphate [1] was less than 1e-05 s⁻¹. Also, the “self-cleavage kobs at 160 uM GlcN6P” value in the data set with glucosamine-6-phosphate [6] is less than 1e-05 s⁻¹.
Take G37U G38U: the kcat with glucosamine-6-phosphate [1] was less than 1e-05 s⁻¹. Moreover, in the data set with glucosamine-6-phosphate [2], the “self-cleavage kobs at 40 uM GlcN6P” value is less than 1e-05 s⁻¹. In the data set with glucosamine-6-phosphate [4], the “self-cleavage kobs at 640 uM GlcN6P” value was less than 1e-05 s⁻¹. Also, the “self-cleavage kobs at 2500 uM GlcN6P” value with glucosamine-6-phosphate [5] was less than 1e-05 s⁻¹.
For U65G C68G, the catalytic constant (kcat) with glucosamine-6-phosphate [1] is less than 1e-05 s⁻¹.
As to G51C G60A, the kcat in the data set with glucosamine-6-phosphate [1] is less than 1e-05 s⁻¹. Further, the “self-cleavage kobs at 640 uM GlcN6P” value in the data set with glucosamine-6-phosphate [4] is less than 1e-05 s⁻¹. In addition, in the data set with glucosamine-6-phosphate [5], the “self-cleavage kobs at 2500 uM GlcN6P” value was less than 1e-05 s⁻¹.
For A6C G41U, in the data set with glucosamine-6-phosphate [2], the “self-cleavage kobs at 40 uM GlcN6P” value is less than 1e-05 s⁻¹. Also, the “self-cleavage kobs at 640 uM GlcN6P” value with glucosamine-6-phosphate [4] was less than 1e-05 s⁻¹. The “self-cleavage kobs at 160 uM GlcN6P” value with glucosamine-6-phosphate [6] is less than 1e-05 s⁻¹.
Turning to G7C A14G, in the data set with glucosamine-6-phosphate [2], the “self-cleavage kobs at 40 uM GlcN6P” value is less than 1e-05 s⁻¹. For the same variant, the “self-cleavage kobs at 2500 uM GlcN6P” value in the data set with glucosamine-6-phosphate [5] is less than 1e-05 s⁻¹. The “self-cleavage kobs at 10000 uM GlcN6P” value with glucosamine-6-phosphate [3] was less than 1e-05 s⁻¹.
Take A48G C61G: the kcat in the data set with glucosamine-6-phosphate [1] is less than 1e-05 s⁻¹. For the same variant, the “self-cleavage kobs at 10000 uM GlcN6P” value with glucosamine-6-phosphate [3] was less than 1e-05 s⁻¹.
Turning to A6C G9C G44U, the “self-cleavage kobs at 40 uM GlcN6P” value in the data set with glucosamine-6-phosphate [2] is less than 1e-05 s⁻¹.
Regarding A15C G60A, the catalytic constant (kcat) with glucosamine-6-phosphate [1] was less than 1e-05 s⁻¹. In addition, in the data set with glucosamine-6-phosphate [2], the “self-cleavage kobs at 40 uM GlcN6P” value was less than 1e-05 s⁻¹. In the data set with glucosamine-6-phosphate [4], the “self-cleavage kobs at 640 uM GlcN6P” value was less than 1e-05 s⁻¹.
In the case of G35A G37U, the kcat in the data set with glucosamine-6-phosphate [1] was less than 1e-05 s⁻¹. Moreover, the “self-cleavage kobs at 640 uM GlcN6P” value in the data set with glucosamine-6-phosphate [4] is less than 1e-05 s⁻¹.
In the case of G7A G38C G40A, the “self-cleavage kobs at 40 uM GlcN6P” value in the data set with glucosamine-6-phosphate [2] was less than 1e-05 s⁻¹.
Turning to A6G G29C, in the data set with glucosamine-6-phosphate [2], the “self-cleavage kobs at 40 uM GlcN6P” value is less than 1e-05 s⁻¹. In the data set with glucosamine-6-phosphate [4], the “self-cleavage kobs at 640 uM GlcN6P” value is less than 1e-05 s⁻¹. For the same variant, the “self-cleavage kobs at 160 uM GlcN6P” value with glucosamine-6-phosphate [6] was less than 1e-05 s⁻¹. Further, in the data set with glucosamine-6-phosphate [5], the “self-cleavage kobs at 2500 uM GlcN6P” value is less than 1e-05 s⁻¹.
